Results as given in paper PMC4336329 (PLoS ONE, 2015).
The campaign covered roughly 310,000 compounds. About 14,000 (4.5%) showed an effect of 50% or more. Effects have a minus sign here. The list shows a part of the results.

What follows are compounds tested against human ether-à-go-go-related gene (hERG) potassium channel (human, UniProt Q12809) (assay: primary screen, population patch clamp on CHO cells stably expressing hERG).
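Further: peak tail current of the secondary pulse compared with the same well before compound.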

Sequence of human ether-à-go-go-related gene (hERG) potassium channel (Q12809 whole entry, looked up): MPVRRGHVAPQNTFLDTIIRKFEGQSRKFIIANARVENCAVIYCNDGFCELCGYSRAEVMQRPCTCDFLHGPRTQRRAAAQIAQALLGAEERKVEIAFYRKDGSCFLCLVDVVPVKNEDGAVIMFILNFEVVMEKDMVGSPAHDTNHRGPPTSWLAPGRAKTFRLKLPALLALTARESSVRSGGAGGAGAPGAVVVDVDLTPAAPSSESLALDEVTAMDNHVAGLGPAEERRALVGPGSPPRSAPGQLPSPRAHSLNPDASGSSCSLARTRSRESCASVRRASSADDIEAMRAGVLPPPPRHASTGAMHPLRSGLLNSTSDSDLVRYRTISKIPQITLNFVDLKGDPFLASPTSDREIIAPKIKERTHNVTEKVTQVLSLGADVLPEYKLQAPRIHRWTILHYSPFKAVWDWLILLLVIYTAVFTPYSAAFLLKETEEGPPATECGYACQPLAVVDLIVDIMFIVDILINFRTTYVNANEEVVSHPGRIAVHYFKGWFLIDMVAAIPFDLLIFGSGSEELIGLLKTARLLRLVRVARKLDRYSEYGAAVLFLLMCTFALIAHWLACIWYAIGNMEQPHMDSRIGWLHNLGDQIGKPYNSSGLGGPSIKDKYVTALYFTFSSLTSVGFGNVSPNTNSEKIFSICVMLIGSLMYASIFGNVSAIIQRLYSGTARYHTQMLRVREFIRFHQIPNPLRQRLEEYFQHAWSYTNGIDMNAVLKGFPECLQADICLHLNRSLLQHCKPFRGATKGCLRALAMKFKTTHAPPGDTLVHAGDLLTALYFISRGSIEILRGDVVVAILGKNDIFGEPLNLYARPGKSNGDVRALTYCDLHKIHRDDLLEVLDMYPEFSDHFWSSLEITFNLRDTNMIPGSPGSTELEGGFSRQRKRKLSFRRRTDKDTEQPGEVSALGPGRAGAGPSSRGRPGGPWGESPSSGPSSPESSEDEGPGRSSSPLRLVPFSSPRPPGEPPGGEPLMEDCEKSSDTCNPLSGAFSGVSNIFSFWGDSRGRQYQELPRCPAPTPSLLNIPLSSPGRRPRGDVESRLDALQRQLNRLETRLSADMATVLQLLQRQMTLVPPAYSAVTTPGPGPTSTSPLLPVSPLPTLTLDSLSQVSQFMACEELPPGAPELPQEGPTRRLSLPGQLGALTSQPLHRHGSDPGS

SMILES	hERG current change (%, negative = inhibition) at 10uM
COc1ccc2cc(C(=O)C3CCCN(C(=O)c4cccnc4)C3)ccc2c1 (stereo not shown)	-25.1%
COc1ccc(NC(=O)CCc2nnc3ccc(NCc4ccc5c(c4)OCO5)nn23)cc1	12.9%
O=S(=O)(Nc1ccccc1)c1ccc(NS(=O)(=O)c2cccs2)cc1	0.645%
COc1cccc(-n2c(=O)c3ccccc3n(CC(=O)NCC3CCCO3)c2=O)c1 (stereo not shown)	21.9%
CC(C)(C)OC(=O)NCCC(=O)N/N=C/c1ccc2nccnc2c1	13.4%
Cc1nn(C)c(Cl)c1CN1CCCC(CO)(Cc2cccc(Cl)c2)C1 (stereo not shown)	-59.8%
O=C(N/N=C/C=C/c1ccccc1)c1cnccn1	6.57%
COc1ccc2c(Cl)c(-c3nnc(SCC(=O)c4ccccc4)n3C)sc2c1	8.28%
Cc1ccc(NC(=O)CS(=O)CC(=O)N(C2CCCC2)C(C)C(=O)NC2CCCCC2)cc1 (stereo not shown)	-22.5%
Cn1c(=O)c2c(-c3ccccc3)n(CCCN3CCOCC3)cc2n(C)c1=O	16.1%
CCOc1cccc(CNCCO)c1OCc1ccc(Cl)cc1.Cl	-53.2%
O=C(COC(=O)CC1c2ccccc2CCN1S(=O)(=O)c1ccc(F)cc1)Nc1ccccc1 (stereo not shown)	2.63%
CSCCC1NC(=O)N(CC(=O)Nc2ccc(N3CCCCC3)cc2)C1=O (stereo not shown)	-9.48%
CCn1cc(S(=O)(=O)c2ccc(C)cc2)c(=O)c2cc(OC)ccc21	-8.72%
Cc1ccccc1S(=O)(=O)Cc1ccc(C(=O)N2CCN(c3ccc(F)cc3)CC2)o1	-64.3%
COC(/C=C/Nc1ccc(Cl)cc1)=C(C#N)C#N	-37.9%
Cc1nnc(N2C(=O)C(O)=C(C(=O)c3ccco3)C2c2ccc(C(C)C)cc2)s1 (stereo not shown)	4.25%
CN(C)S(=O)(=O)c1ccc(C(=O)OCC(=O)NC(=O)NCc2ccccc2)cc1	-1.48%
COc1cc(CCC(=O)Nc2nnc(C)s2)cc(OC)c1OC	22%
CCOc1ccc(CNC(=O)CCCC(=O)n2nc(C)c3ccccc32)cc1	-12.4%
CN1c2ccc(Cl)cc2C(=O)NC1C1CC=CCC1 (stereo not shown)	7.1%
Cc1cccc(N2CCN(C(=O)c3cc(S(=O)(=O)N4CCOCC4)cn3C)CC2C)c1 (stereo not shown)	8.88%

SMILES	hERG current change (%, negative = inhibition) at 10uM
N#C/C(=C(/O)c1ccc([N+](=O)[O-])cc1)c1nnc2n1CCCCC2	-1.37%
Cc1ccc(C(=O)O)cc1S(=O)(=O)N1CCCC1	-4.72%
O=C(C(NS(=O)(=O)c1cccs1)c1ccccc1)N1CCN(c2ccccc2)CC1 (stereo not shown)	-33.4%
Cn1c(SCC(=O)N2CCCC2)nnc1-c1ccc(S(=O)(=O)N2CCCC2)cc1	-5.2%
CCOP(=O)(OCC)C(NC(=O)Nc1c(C)cc(C)cc1C)c1ccccc1 (stereo not shown)	4.12%
CCOC(=O)c1cccc(NC(=O)CCNS(=O)(=O)c2ccc3c(c2)CCN3C(=O)CC)c1	-37.2%
Fc1ccc(N/N=C2/CCSc3sccc32)c(F)c1	-1.19%
Oc1ccc(-c2csc(Nc3ccccn3)n2)c(O)c1	14.7%
COc1ccc(C)cc1NC(=O)CN1CCN(S(=O)(=O)c2ccc(C(C)C)cc2)CC1	-2.46%
CCOc1ccc(OCC)c(NS(=O)(=O)c2ccc3c(c2)n(C)c(=O)c(=O)n3C)c1	-37.8%
Cl.O=C(O)c1ccc(CNCc2cccc(OCc3ccc(F)cc3)c2)cc1	25.5%
Cc1ccc(C(=O)OCC(=O)N(C)c2ccccc2)cc1C	-9.59%
O=C(NNC(=S)NC1CCCCC1)c1sc2ccccc2c1Cl	7.99%
Cc1ccccc1N=C1NC(=O)CS1	13.5%
COc1ccc(Cn2cnc3c(N)c(C)c(C)cc32)cc1	5.13%
CN(CC(=O)NC(=O)NC(C)(C)C)CC(=O)Nc1ccccc1Cl	3.53%
COc1ccc(-c2noc(CNC(=O)c3ccoc3C)n2)cc1OC	18.6%
CN(C)N=Nc1ccc(S(N)(=O)=O)cc1	15.4%
C/C=C/c1ccc(OCC(=O)Nc2ccncc2)c(OC)c1	-14.9%
Cn1c(=O)c2c(nc(Cl)n2CCOc2ccccc2)n(C)c1=O	6.36%
CCCCCn1c(C(Cc2ccccc2)NC(=O)COC)nc2ccccc21 (stereo not shown)	-45.9%
CCOC(=O)c1cc(CC)sc1NC(=O)c1ccc2c(c1)OCCO2	-3.4%

SMILES	hERG current change (%, negative = inhibition) at 10uM
O=C1c2ccccc2-c2onc3ccc(Oc4ccccc4)c1c23	-13.8%
CCSc1nnc(NC(=O)c2cccnc2)s1	2.16%
S=C1NCN(C2CCCCC2)CN1c1ccccc1	17.1%
O=C(O)/C=C/c1ccc(S(=O)(=O)Nc2cccnc2)cc1	17.1%
COCCNC(=O)c1cc2sccc2n1C	1.67%
CCOC(=O)C1CCCCN1Cc1cn[nH]c1-c1ccc(F)cc1F (stereo not shown)	1.06%
O=C(NCc1ccco1)C1CCC(CNS(=O)(=O)c2cccc3cccnc23)CC1 (stereo not shown)	13.6%
O=[N+]([O-])c1ccc(Oc2cccc(C(F)(F)F)c2)nc1	3.06%
C=CCOn1c(=O)c(-c2ccc(OC)c(OC)c2)[n+]([O-])c2ccccc21	-5.62%
COc1ccc(C(C)=O)cc1Cn1nnc(-c2ccccc2Br)n1	-21.9%
COCCNc1nc(SCc2ccccc2)nc2sc3c(c12)CCC3	-1.51%
O=C(c1ccccc1)c1ccc(OCCn2cnc3ccccc3c2=O)cc1	-0.949%
COc1ccc(CNC(=O)CN(C)S(=O)(=O)c2ccc(Cl)cc2)cc1	-20.4%
O=C(CN1C(=O)C(=O)N(C2CCCC2)C1=O)Nc1ccc(OC(F)F)cc1	0.249%
CCOC(=O)N1CCN(CC(O)COc2cc(C)cc(C)c2)CC1.Cl (stereo not shown)	-12.7%
O=C(/C=C/c1ccc2ccccc2n1)c1cc(Br)ccc1O	-0.463%
O=C(O)CNc1nc(Cl)ccc1[N+](=O)[O-]	6.24%
COc1ccc(OC(=O)c2c(C)nn(-c3ccccc3)c2C)cc1	3.71%
Fc1cccc(F)c1-n1c(CN2CCOCC2)csc1=S	40.8%
CSCCC(NC(=O)OCc1ccccc1)C(=O)O (stereo not shown)	8.89%
CC(=O)C1C(c2cn(-c3ccccc3)nc2-c2cccs2)NC(=O)NC1(O)C(F)(F)F (stereo not shown)	11.6%
COc1cccc(-n2c(-c3ccco3)nc3nc4ccccc4nc32)c1	18.4%

SMILES	hERG current change (%, negative = inhibition) at 10uM
Cc1ccc(NC(=S)NN(C)c2cc(C)nc(C)n2)cc1	-4.1%
O=C(NC1CC(=O)N(c2ccc(F)cc2)C1)C(=O)c1c[nH]c2ccccc12 (stereo not shown)	-1.77%
COc1ccc(NC(=O)CSc2nnc(-c3ccccn3)n2N)cc1	9.24%
Cc1ccc(-c2nnn(CC(=O)N(c3ccc(F)cc3)C(C(=O)NC3CCCC3)c3ccncc3)n2)o1 (stereo not shown)	8.7%
CC1CCCN(CC(O)COc2ccc3c(c2)OCO3)C1.Cl (stereo not shown)	-15.1%
COC(=O)[C@H](Cc1ccccc1)N(C)S(=O)(=O)c1cccc(S(=O)(=O)N(C)[C@@H](Cc2ccccc2)C(=O)OC)c1	7.14%
COc1ccc(Cl)cc1NC(=O)/C=C/C(=O)O	13.6%
Nc1cc(=O)[nH]c(SCCSc2ccc(F)cc2)n1	0.794%
COc1ccc(CNC(=O)C2CCCC2)cc1	9.34%
COc1ccc(Cc2nc3ccc(C(=O)NCc4cc(C)no4)cc3o2)cc1OC	-3.66%
COc1cccc(CC(=O)Nc2cc(S(=O)(=O)N3CCOCC3)ccc2N2CCOCC2)c1	-9.41%
CCOCc1c(C(=O)OCC(=O)/C(C#N)=C(\C)N)oc2ccccc12	13.6%
CCN(CC)CCCNC(=O)Cn1ccc2ccccc2c1=O	29.8%
Cc1n[nH]c(=O)c2c1nnn2Cc1ccc(F)cc1	4.2%
O=C1NCCCC1C(=O)N1CCN(C(=O)c2ccco2)CC1 (stereo not shown)	1.03%
Cc1cnc(NC(=O)c2sc(Nc3ccccc3)nc2N)o1	16.6%
CCN(CCCn1c(=S)[nH]c2ccc(N3CCOCC3)cc2c1=O)c1ccccc1	5.99%
O=C(COC(=O)c1cc[n+]([O-])cc1)NCCc1ccc(Cl)cc1Cl	53.4%
CCCCCN(C(=O)CCC(=O)OCc1cccc(Br)c1)c1c(N)n(CCCC)c(=O)[nH]c1=O	-13.4%
COc1cccc(C2CC(C(F)(F)F)n3ncc(C(=O)NCc4ccco4)c3N2)c1 (stereo not shown)	-29.9%
Cc1ccc(C)c(N2CCN(C(=O)CCS(=O)(=O)c3ccc4c(c3)NC(=O)C(C)S4)CC2)c1 (stereo not shown)	21.1%
CCOc1cc(NC(=S)NCc2ccco2)c(OCC)cc1NC(C)=O	-3.02%
